From PMC4336329 (PLoS ONE, 2015)
The whole screen tested about 310,000 compounds, of which about 2,200 (0.71%) showed an effect of 50% or more. Effects have a minus sign here. The list shows a part of the results.

target: human ether-à-go-go-related gene (hERG) potassium channel (human, UniProt Q12809); test: primary screen, population patch clamp on CHO cells stably expressing hERG
Sequence (Q12809 whole entry, looked up): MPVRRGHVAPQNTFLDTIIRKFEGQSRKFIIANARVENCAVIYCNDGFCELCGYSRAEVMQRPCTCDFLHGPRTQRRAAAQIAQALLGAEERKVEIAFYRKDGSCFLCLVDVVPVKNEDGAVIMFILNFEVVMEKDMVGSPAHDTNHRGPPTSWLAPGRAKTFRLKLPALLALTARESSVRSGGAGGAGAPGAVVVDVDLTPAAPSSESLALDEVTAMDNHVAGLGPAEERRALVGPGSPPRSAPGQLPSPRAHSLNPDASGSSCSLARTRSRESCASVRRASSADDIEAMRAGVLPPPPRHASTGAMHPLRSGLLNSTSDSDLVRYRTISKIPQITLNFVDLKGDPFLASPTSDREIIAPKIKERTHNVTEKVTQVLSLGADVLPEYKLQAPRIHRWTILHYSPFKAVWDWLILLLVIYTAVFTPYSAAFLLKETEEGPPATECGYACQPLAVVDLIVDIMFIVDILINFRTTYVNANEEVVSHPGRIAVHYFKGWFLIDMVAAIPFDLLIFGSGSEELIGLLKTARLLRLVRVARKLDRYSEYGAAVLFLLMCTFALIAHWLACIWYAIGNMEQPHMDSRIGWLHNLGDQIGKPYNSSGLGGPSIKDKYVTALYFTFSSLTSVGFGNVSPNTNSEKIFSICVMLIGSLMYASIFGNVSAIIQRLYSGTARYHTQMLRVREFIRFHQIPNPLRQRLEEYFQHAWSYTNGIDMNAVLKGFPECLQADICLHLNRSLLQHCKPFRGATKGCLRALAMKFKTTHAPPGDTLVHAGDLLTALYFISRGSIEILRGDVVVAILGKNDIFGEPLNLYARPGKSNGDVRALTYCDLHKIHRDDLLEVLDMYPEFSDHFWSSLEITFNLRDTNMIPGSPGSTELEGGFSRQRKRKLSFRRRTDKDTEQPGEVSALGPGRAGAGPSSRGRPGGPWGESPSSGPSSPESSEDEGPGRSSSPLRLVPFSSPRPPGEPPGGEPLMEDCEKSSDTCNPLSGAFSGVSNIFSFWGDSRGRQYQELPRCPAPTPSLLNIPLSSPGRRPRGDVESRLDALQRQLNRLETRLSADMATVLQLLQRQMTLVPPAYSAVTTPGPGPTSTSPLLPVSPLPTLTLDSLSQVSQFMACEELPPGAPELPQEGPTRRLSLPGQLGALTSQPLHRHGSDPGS

| Structure (SMILES) | hERG current change (%, negative = inhibition) at 1uM [%] |
| --- | --- |
| Cc1ccc(NC(=O)c2noc(C(C)C)c2[N+](=O)[O-])cc1 | 4.81 |
| O=C(CCC(=O)NNC(=S)Nc1ccccc1)NCc1ccccc1 | 20.1 |
| O=C(COc1ccc(S(=O)(=O)NC2CCCCC2)cc1)N1CCN(c2ccc(F)cc2)CC1 | -9.18 |
| COc1ccc(CNC(=O)C/C(C)=N/NC(=O)c2cnccn2)cc1 | 20.4 |
| COc1cccc(N2CCN(Cc3ccco3)CC2)c1 | 12 |
| O=C(NC12CC3CC(CC(C3)C1)C2)N1CCN(C(=O)C2CCCO2)CC1 (stereo not drawn) | 11.7 |
| COc1ccc(NC(C)=O)cc1S(=O)(=O)Nc1ccccc1C(=O)N1CCCC1 | 4.48 |
| COc1cc(CNCc2ccccn2)ccc1OCC(=O)NC(C)(C)C.Cl | 3.61 |
| CC(C)N(C(=O)CSc1nc2ccccc2n1Cc1ccccc1)C(C)C | -8.14 |
| COC(=O)c1ccc2c(=O)[nH]c(CSc3nc(-c4ccc(F)cc4)cs3)nc2c1 | 13.2 |
| CN1/C(=C\C(=O)c2oc3ccccc3c2N)C(C)(C)c2ccccc21 | 17.2 |
| Fc1cccc(F)c1CN1CCN(c2ncccn2)CC1 | 16.7 |
| O=C(COC(=O)c1cc[n+]([O-])cc1)Nc1cc([N+](=O)[O-])ccc1Cl | 13.7 |
| COCCNC(=O)/C(C#N)=C/C=C/c1ccccc1[N+](=O)[O-] | 11.3 |
| NC(=O)c1c(NC(=O)C2CC=CCC2C(=O)O)sc2c1CCCCC2 (stereo not drawn) | 15.4 |
| CC(NC(=O)C(C)N1C(=O)c2ccccc2C1=O)c1ccccc1 (stereo not drawn) | 7.23 |
| Cc1ccc(NC(=S)NCCc2ccccc2)nc1 | 7.22 |
| COc1cc2cc(CN(CCN3CCCC3)C(=O)Nc3ccc(F)cc3)c(=O)[nH]c2cc1OC | 3.06 |
| Cc1noc(NS(=O)(=O)c2ccc(NC(=O)C34CC5CC(C3)CC(n3cnc(Br)n3)(C5)C4)cc2)c1C | 9.86 |
| O=C(NCCCn1ccnc1)C(=O)NCC1OCCCN1S(=O)(=O)c1ccc(F)cc1 (stereo not drawn) | 5.99 |
| COC(=O)c1ccc(CN2CCCC(CO)(Cc3ccc(F)cc3F)C2)cc1 (stereo not drawn) | -8.99 |
| COc1ccc(NC(=O)CCC(=O)c2ccc(-c3ccccc3)cc2)cc1 | 8.94 |

| Structure (SMILES) | hERG current change (%, negative = inhibition) at 1uM [%] |
| --- | --- |
| CCN(C(=O)c1ccco1)c1nnc(-c2ccc(OC)cc2)s1 | 10 |
| Nc1c(C(=O)c2ccccc2)oc2ccccc12 | 13.5 |
| Cc1ccc(/C=N/NC(=O)CNC(=O)COc2ccccc2)o1 | 2.85 |
| N#C/C(=C\c1cccnc1)C(=O)Nc1ccccc1 | 10.8 |
| CCCSc1nnc(-c2cccc(S(=O)(=O)N(C)C)c2)n1-c1cc(OC)ccc1OC | -1.69 |
| O=C(NCC(c1ccco1)N1CCCC1)c1ccc(Cl)c(S(=O)(=O)N2CCc3ccccc32)c1 (stereo not drawn) | 14.4 |
| Cc1nc(CNS(=O)(=O)c2ccccc2F)cs1 | -0.287 |
| COc1ccccc1N1CC(C(=O)NCCN2C(=O)S/C(=C\c3cccnc3)C2=O)CC1=O (stereo not drawn) | 10.7 |
| Cc1cc(NS(=O)(=O)c2ccc(NC(=O)CCCC(=O)O)cc2)nc(C)n1 | 9.18 |
| O=c1[nH]c(SCc2ccc(Cl)cc2)nc2ccsc12 | -9.75 |
| Cc1ccc(NC(=O)CN2CCN(Cc3ccccc3)CC2)cc1F | -29.3 |
| CCC1=NN(C(=O)COc2ccccc2C)C(O)(c2ccncc2)C1 (stereo not drawn) | 1.74 |
| O=C(NCN1CCN(c2ccccc2F)CC1)c1ccccc1 | 5.34 |
| COc1ccc(-c2nc3c(s2)CCc2onc(-c4ccc(Br)cc4)c2-3)cc1 | 12 |
| COC(=O)[C@@H](NCc1cccc(CN[C@H](C(=O)OC)C(C)C)c1)C(C)C | 10.6 |
| O=[N+]([O-])c1c(-c2cn[nH]c2)n[nH]c1-c1cn[nH]c1 | 14.6 |
| COC(=O)C1=C(C(=O)OC)[C@@H]2N(C)c3ccc(OC)cc3[C@@]23C[C@@H](C(=O)OC)N(C(=O)C2CCC2)C3=N1 | -6.84 |
| Cc1ccc(C)c(OCc2nnc(NC(=O)c3ccc4c(c3)OCO4)s2)c1 | 6.46 |
| CC(C)C(=O)Nc1ccc(C(=O)NNC(=O)CCc2ccccc2)cc1 | 10.1 |
| CC/C(=N\NC(=O)c1ccccc1O)c1c(O)n(Cc2ccccc2)c(=O)[nH]c1=O | 7.24 |
| Cc1ccc(N2CCN(c3ccc(C)cc3)C2c2ccccn2)cc1 | 4.25 |
| Br.OCCn1c(-c2ccccc2)csc1=Nc1ccccc1 | -7.29 |

| Structure (SMILES) | hERG current change (%, negative = inhibition) at 1uM [%] |
| --- | --- |
| O=C(CSc1nc2ccccc2s1)NCCOc1ccccc1 | 0.807 |
| COc1ccc(N(CC(=O)NCCSCc2ccco2)S(=O)(=O)c2ccccc2)cc1 | 4.63 |
| Cc1cccc(CCNC(=O)C2CCC(=O)N(Cc3ccc(Cl)cc3)C2)n1 (stereo not drawn) | 8.54 |
| CCSc1ccc([C@@H]2[C@H]3C(=O)N(C)C(=O)[C@H]3[C@]3(C(=O)OC)CCCCN23)cc1OC.O=C(O)C(F)(F)F | 11.2 |
| N#Cc1ccc(OCC(=O)N/N=C/C2CC=CCC2)cc1 (stereo not drawn) | 9.88 |
| CN(NC(=O)Nc1ccccc1)c1cnn(C)c(=O)c1Cl | 7.29 |
| Cn1c(=O)c2c(SCC(=O)Nc3cccc(F)c3)nc(-c3ccco3)nc2n(C)c1=O | 6.85 |
| COc1cc2c(C(=O)N3CCN(c4cccc(Cl)c4)CC3)cn(CC(C)C)c(=O)c2cc1OC | -5.96 |
| COc1ccc(-c2csc(NC(=O)CCCc3nc4ccccc4c(=O)[nH]3)n2)cc1OC | 5.14 |
| O=S(=O)(NC1CCCCC1Nc1ccc(Cl)cc1)c1ccccc1 (stereo not drawn) | 20.4 |
| Cc1ccc(N(CCC(=O)Nc2nnc(C3CC3)s2)S(=O)(=O)c2ccccc2)cc1 | -2.13 |
| COc1ccccc1-c1nc(C#N)c(N2CCN(C(c3ccccc3)c3ccccc3)CC2)o1 | 4.3 |
| O=P(Cc1ccccc1O)(c1ccccc1)c1ccccc1 | 15.5 |
| CC(Oc1ccc2c(-c3ccccc3)cc(=O)oc2c1)C(=O)NCCCn1ccnc1 (stereo not drawn) | -14.1 |
| CN(C(=O)c1ccc2c(c1)OCO2)C1(C(=O)NC2CCCC2)CCCCC1 | 5.78 |
| Cc1ccc(NC(=O)c2cnccn2)nc1 | 4.96 |
| Nc1cc(Oc2ccc(Cl)cc2Cl)nc(N)n1 | 3.09 |
| O=C(c1ccc2c(c1)ncn2C1CCCCC1)N1CCC2(CC1)OCCO2 | 0.618 |
| C=CCOc1c(Cl)cc(/C=N/O)cc1OC | 9.51 |
| O=C1CN(C(=O)c2ccc(Br)o2)C(c2ccc(F)cc2)c2cc(Cl)ccc2N1 (stereo not drawn) | 11.6 |
| Cc1ccc(NC(=O)CSc2nnc(Cn3c(=O)sc4ccccc43)n2C)cc1 | 10.2 |
| NC(=NC(=O)c1cccc(C(F)(F)F)c1)c1ccc(C(F)(F)F)cn1 | 3.86 |

| Structure (SMILES) | hERG current change (%, negative = inhibition) at 1uM [%] |
| --- | --- |
| CC(C)CN(C(=O)COC(=O)c1c(Cl)ccc(Cl)c1Cl)C1CCS(=O)(=O)C1 (stereo not drawn) | 5.48 |
| COCc1cc(C)nc(SCC(=O)Nc2cc(C(F)(F)F)ccc2N2CCOCC2)c1C#N | -8.37 |
| COc1cccc(N2CCN(C3CC(=O)N(c4ccc(C)c(Cl)c4)C3=O)CC2)c1 (stereo not drawn) | -0.815 |
| CCOC(=O)NC(=S)Nc1ccc(C(C)(C)C)cc1Br | 12 |
| CCc1ccc(C(O)(CNCc2ccccc2)c2ccccc2)cc1 (stereo not drawn) | 6 |
| Cc1c(NC(=O)CSc2ccc(Cl)cc2)cccc1-c1nc2ncccc2o1 | -3.27 |
| Cc1ccc(S(=O)(=O)CCc2nnc(NC(=O)c3cccs3)s2)cc1 | 1.33 |
| COc1ccc(Nc2nc(Cl)nc(N3CCN(c4ccc(OC)cc4)CC3)n2)cc1 | 7.65 |
| C1=C(CCNCC2CC2)CCCC1.Cl | -4.41 |
| CCn1c(CNC(=O)c2ccccc2)nc2ccccc21 | 6.8 |
| COc1cc(OC)c(/C=N/NC(=O)c2ccncc2)cc1Br | 12.2 |
| O=C(O)c1ccc(F)c(S(=O)(=O)Nc2ccccc2)c1 | 1.03 |
| COC(=O)CCCCC(=O)C1C(=O)CC(C)(C)C(C(=O)OC)C1=O (stereo not drawn) | 7.77 |
| CNS(=O)(=O)c1ccc(NC(=O)c2csc(C)c2)cc1 | 10.6 |
| CN(C(=O)/C=C/c1ccccc1)C1CCCCC1 | 11.3 |
| CCN(C(=O)c1ccc(=O)[nH]c1)c1c(N)n(Cc2ccccc2)c(=O)[nH]c1=O | 6.12 |
| COc1ccc(N2C(=O)C(CN3CCN(C)CC3)C2c2ccccc2)cc1 (stereo not drawn) | -19 |
| Cc1cc(C(=O)OCC(=O)Nc2ccccc2C)c(C)o1 | 7.9 |
| CCC(C)Nc1nc(Cl)nc(NCCOc2ccccc2)n1 (stereo not drawn) | 5.41 |
| O=C(c1cc(-c2cccc(O)c2)on1)N1CCOCC1 | 20 |
| COc1cccc(-c2nc(-c3ccccc3)no2)c1 | 9.7 |
